# Test results published in PubChem BioAssay AID902 (National Center for Advancing Translational Sciences (NCATS), 2007).
# Among all 130,000 compounds or so, about 1,900 (1.5%) were called active. This list was built around the results that the source calls inconclusive (neither active nor inactive); the mix of calls is not that of the screen. Calls come from the whole dose curve; as a rule, active = well fitted cell-killing curve with a large enough effect; inconclusive = small, poorly fitted or top-dose-only effect; inactive = no such curve, though single readings can be large or run the other way. Potencies beside an inconclusive call are fits to weak or partial responses and may not hold up.
# Assay: qHTS Screen for Compounds that Selectively Target Cancer Cells with p53 Mutations: Cytotoxicity of p53ts Cells at the Nonpermissive Temperature; note: nearly all actives have a fitted effect of over 55% in size
# Details: H1299-p53A138V viability at 39C, ATP luminescence, 24 h; series mostly up to 46.1 µM
# Potency is the fitted concentration of half-maximal effect; tags give direction and shape of the fitted curve.
row,SMILES,Potency
1,COc1ccc(CC(=O)Nc2ccc(-c3nc4ccccc4s3)cc2Cl)cc1OC,"inconclusive: 31.6 µM [cytotoxic, single point]"
2,CCCOCc1cc(CN2CCN(c3cccc(Cl)c3)CC2)c(O)c2ncccc12,active: 15.8 µM
3,Cc1cccc(CCNC(=O)c2ccc3c(c2)nc2n3CCOC2)c1,active: 12.6 µM
4,CCOC(=O)c1ccc(Nc2nc(N)c3cc(OC)c(OC)cc3n2)cc1,"inconclusive: 31.6 µM [cytotoxic, single point]"
5,Cc1oc2ncnc(N3CCCCC3)c2c1C(=O)Nc1cccc(Cl)c1C,"inconclusive: 0.631 µM [cytotoxic, full curve, poor fit]"
6,N#Cc1sc2nc(C3CC3)cc(-c3ccccc3)c2c1N,inactive
7,CCSc1sccc1C1C(C#N)=C(N)N(c2cccnc2)C2=C1C(=O)CCC2 (stereo unspecified),inactive
8,O=C(CSc1nnc(-c2cccs2)o1)N1CCCCC1,inactive
9,Cc1cc(C)c(/C=C/c2onc(C)c2S(=O)(=O)N2CCC(C(=O)NCC(C)c3ccccc3)CC2)c(C)c1 (stereo unspecified),"inconclusive: 0.158 µM [cytotoxic, full curve, poor fit]"
10,COc1ccccc1N1CCN(C(=O)c2nc(-c3ccc(C)cc3)n3c2CCCCC3)CC1,"inconclusive: 31.6 µM [cytotoxic, single point]"
11,COc1ccc(N2CCN(CCCNC(=O)c3cc(Nc4ccccc4OC)nc4ccccc34)CC2)cc1,"inconclusive: 3.16 µM [cytotoxic, partial curve]"
12,O=C(CN(C1CC1)S(=O)(=O)c1ccc(S(=O)(=O)N2CCCCCC2)cc1)Nc1ccccc1,"inconclusive: 12.6 µM [cytotoxic, single point]"
13,Cc1oc(-c2cccc(Cl)c2)nc1CN1CCCC(C(=O)NCc2ccc(Cl)cc2)C1 (stereo unspecified),"inconclusive: 12.6 µM [cytotoxic, single point]"
14,Cc1cc(C)n(-c2ccc(C(=O)Nc3sccc3C(N)=O)cc2)n1,"inconclusive: 10 µM [cytotoxic, partial curve]"
15,CC1CC(C)CN(c2ncnc3c2cnn3-c2ccc(Cl)cc2)C1 (stereo unspecified),inactive
16,CC1CCC2(CC1)N=C(c1ccccc1)C(=O)N2CC(=O)Nc1ccc(F)c(Cl)c1 (stereo unspecified),"inconclusive: 31.6 µM [cytotoxic, single point]"
17,O=c1c2cc3c(nc2ncn1Cc1ccc(Cl)cc1)CCCC3,"inconclusive: 3.98 µM [cytotoxic, single point]"
18,COc1ccc(C(=O)Nc2cc(C)on2)cc1,active: 6.31 µM
19,Cc1cccc(-n2c(C)nc3cc(C(=O)NC4CCCCCC4)ccc32)c1,"inconclusive: 15.8 µM [cytotoxic, single point]"
20,Cc1cccc(Cc2nnc(NC(=O)c3cccc(S(=O)(=O)N4CCOCC4)c3)s2)c1,inactive
21,OCCN1CCN(CC/C=C2\c3ccccc3Sc3ccc(C(F)(F)F)cc32)CC1,active: 15.8 µM
22,COc1ccc(OC)c(Nc2cc(C)nc3ccccc23)c1,"inconclusive: 7.94 µM [cytotoxic, partial curve]"
23,N#Cc1ccc(OC(=O)c2cc(-c3ccc4c(c3)OCCO4)on2)cc1,active: 12.6 µM
24,CCOC(=O)c1oc2ccc(S(=O)(=O)n3nc(-c4cc(OC)cc(OC)c4)cc3N)cc2c1C,inactive

row,SMILES,Potency
1,CN1CCN(c2ncc3nc(CCc4ccccc4)c(=O)n(CCc4ccccc4)c3n2)CC1,"inconclusive: 31.6 µM [cytotoxic, single point]"
2,Cc1nc2c(C(=O)NCCc3ccc(Cl)cc3)c[nH]n2c(=O)c1Cc1ccccc1F,"inconclusive: 31.6 µM [cytotoxic, single point]"
3,CCc1ccc(N2CCn3c2nc2c3c(=O)n(Cc3c(F)cccc3Cl)c(=O)n2C)cc1,"inconclusive: 31.6 µM [cytotoxic, single point]"
4,COc1ccc(S(=O)(=O)NCc2ccc3c(c2)CCN3C(=O)c2ccc(C)cc2)cc1Cl,"inconclusive: 0.0056 µM [cytotoxic, full curve, poor fit]"
5,Cc1nn(C)c(C)c1S(=O)(=O)N(CC(=O)Nc1nccs1)c1ccc(C(C)C)cc1,inactive
6,Cc1cc(C(=O)COC(=O)CNC(=O)c2ccco2)c(C)n1Cc1ccco1,inactive
7,O=C(CSc1nccn1Cc1ccc(F)cc1)Nc1ccc2c(c1)OCO2,"inconclusive: 3.98 µM [cytotoxic, partial curve, poor fit]"
8,Cc1nc(-c2cccc(F)c2)sc1CCNC(=O)c1ccc(F)c(F)c1,"inconclusive: 3.16 µM [cytotoxic, partial curve]"
9,CCC(=O)Nc1cccc(-c2cn3ccccc3n2)c1,inactive
10,COc1cc(NC(=O)c2cc(-c3ccc(Cl)c(Cl)c3)on2)cc(OC)c1OC,active: 20 µM
11,Cc1ccc(OCC(=O)Nc2ccc(O)c(-c3nc4ccccc4o3)c2)cc1,"inconclusive: 15.8 µM [cytotoxic, single point]"
12,Cc1nc(NCc2ccccc2)c2nc(-c3ccccc3)n(CCCN3CCCCC3C)c2n1 (stereo unspecified),"inconclusive: 31.6 µM [cytotoxic, single point]"
13,O=C(Nc1ccc(F)cc1F)c1c2c(nc3ccccc13)C(=O)N(C1CCCCC1)C2,"inconclusive: 0.0126 µM [cytotoxic, full curve, poor fit]"
14,O=C(NCc1cccs1)C1CCN(C(=O)N2CCOc3ccccc32)CC1,"inconclusive: 31.6 µM [cytotoxic, single point]"
15,CCOc1ccc(C2C(=O)N(C3CCCCCC3)CC(=O)N2CCc2ccccc2)cc1OC (stereo unspecified),"inconclusive: 12.6 µM [cytotoxic, partial curve, poor fit]"
16,COc1ccc(N2CCN(S(=O)(=O)CCNC(=O)c3ccc(C(F)(F)F)cc3)CC2)cc1,"inconclusive: 1 µM [cytotoxic, full curve, poor fit]"
17,COc1ccccc1N(CC(=O)Nc1ccccc1F)S(C)(=O)=O,inactive
18,C=C(C)COc1ccc2c(C)c(CC(=O)OC)c(=O)oc2c1C,inactive
19,COc1ccc(-n2c(SCc3nnc(-c4ccccc4)o3)nnc2-c2ccccc2)cc1,inactive
20,Cc1cc(N)ccc1-n1c(C)ccc1C,inactive
21,CCC(CO)Nc1ncnc2c1cnn2-c1ccc(C)cc1 (stereo unspecified),active: 15.8 µM
22,N#C/C(=C\c1c[nH]c2ccccc12)C(=O)c1ccc(O)c(O)c1,"inconclusive: 10 µM [cytotoxic, partial curve]"
23,COc1ccc2c(c1)-c1nc(NC(=O)c3ccc(C)cc3)sc1CC2,"inconclusive: 12.6 µM [cytotoxic, single point]"
24,O=C(NC1CCCCC1)c1cnn2c(C(F)(F)F)cc(-c3ccco3)nc12,inactive

row,SMILES,Potency
1,O=C(/C=C/Nc1ccc(F)cc1)c1ccco1,active: 12.6 µM
2,COc1ccc(N2C(=O)c3ccccc3NC23CCCCC3)cc1,"inconclusive: 12.6 µM [cytotoxic, partial curve]"
3,O=C(Nc1ccc2oc(-c3cccnc3)nc2c1)c1ccc(-c2ccccc2)o1,"inconclusive: 31.6 µM [cytotoxic, single point]"
4,CCc1ccc(NC(=O)C(=O)NCC(c2cccnc2)N2CCN(C)CC2)cc1 (stereo unspecified),"inconclusive: 12.6 µM [cytotoxic, single point]"
5,O=C(COc1ccccc1Cl)Nc1ccc(Cl)c(-c2nc3ccccc3o2)c1,"inconclusive: 5.01 µM [cytotoxic, partial curve]"
6,O=C(O)c1ccc2nc(-c3cc4cc(F)ccc4oc3=O)[nH]c2c1,"inconclusive: 2.51 µM [cytotoxic, full curve, poor fit]"
7,CCCCN(CC)S(=O)(=O)c1cccc2cccnc12,inactive
8,CCCc1ccc2c(N)c(C#N)sc2n1,inactive
9,COc1ccc(Nc2nnc(-c3ccc(C)c(S(=O)(=O)N4CCN(C)CC4)c3)c3ccccc23)cc1,inactive
10,COc1ccc2sc(NC(=O)c3ccco3)nc2c1,active: 10 µM
11,Cc1ccc(C)c(N2CCN(C(=O)c3ccc4c(c3)c(C)c(C)n4C)CC2)c1,"inconclusive: 31.6 µM [cytotoxic, single point]"
12,CCOc1ccccc1C1CC(=O)NC(C)=C1C(=O)OCc1ccc(C)cc1 (stereo unspecified),inactive
13,CC1CCCN(c2csc3ccccc3c2=O)C1 (stereo unspecified),"inconclusive: 10 µM [cytotoxic, partial curve]"
14,O=c1/c(=C\c2ccc3c(c2)OCO3)sc2n1CCCN=2,active: 12.6 µM
15,Cc1ccc(-n2ncc3c(NCCc4ccccc4)ncnc32)cc1C,"inconclusive: 20 µM [cytotoxic, single point]"
16,CN(Cc1ccco1)c1cc(-c2cccc(NS(C)(=O)=O)c2)ncn1,"inconclusive: 15.8 µM [cytotoxic, single point]"
17,Cc1nc2nc(SCC(=O)NCc3ccccc3)nn2c(C)c1Cc1ccccc1Cl,"inconclusive: 12.6 µM [cytotoxic, partial curve]"
18,Cc1ccc(OCCSc2nc3ccc(NC(=O)COc4ccc(F)cc4)cc3s2)cc1,active: 10 µM
19,Oc1cccc2ccc(Nc3ccccn3)nc12,active: 10 µM
20,COc1ccc(-c2nc3nc(C)cc(Nc4ccc(C(C)=O)cc4)n3n2)cc1,"inconclusive: 31.6 µM [cytotoxic, single point]"
21,CC(=O)N[C@@H](Cc1c[nH]c2ccccc12)C(=O)OCc1cc(C(F)(F)F)cc(C(F)(F)F)c1,"inconclusive: 25.1 µM [cytotoxic, partial curve]"
22,O=C(CCn1c(=O)c2cccn2c2ccc(F)cc21)NCCc1ccccc1Cl,"inconclusive: 15.8 µM [cytotoxic, single point]"
23,COc1ccc(-n2nc(C(=O)N(C)c3cccc(C(F)(F)F)c3)c3c4ccccc4n(C)c3c2=O)cc1,inactive
